# From PubChem BioAssay (NCATS)
# The inconclusive results got no clear call from the source; some entries with a clear call stand among them for comparison. For part of these data: Potencies of inconclusive entries are left out as doubtful fits. For part of these data: “Side channel” marks fits to a control or component signal instead of the main read-out. Calls of active or inactive are those of the source. Unless noted, the call rests on the fitted dose curve; in most records, active means well fitted curve in the direction sought with a large enough effect; inconclusive means small, poorly fitted or top-dose-only effect, or another doubt; inactive means no such curve, though single readings can be large; an effect the other way counts as inactive or inconclusive.
# How the values were obtained:
# [1] = Cell Proliferation Assay against the TMD8 Cell Line (Caspase readout at 8 hrs) (AID 651713); details: TMD8 lymphoma cells, caspase activation luminescence; caspase activation: at 46.1 µM (top of the series); further: potency means the concentration at half of the fitted maximal effect;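 on caspase activation: 0% = DMSO and 100% = 9.2 µM bortezomib caspase signal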
# In short: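 Apoptosis readout: caspase 3/7 luminescence (Caspase-Glo), 15 min RT. Cells: TMD8, 500/well, RPMI + 5% FBS, no phenol red. Exposure 8 h, 37C. % activity vs DMSO = 0, bortezomib 9.2 uM final = 100.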
# [2] = biological target: Tyrosine-protein kinase Yes (Homo sapiens) (UniProt P07947); assay: qHTS for small molecule inhibitors of Yes1 kinase: Primary Screen (AID 686947); further: nearly all actives have a fitted effect of over 60% in size; further: potency means the concentration at half of the fitted maximal effect
# In short: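 In this qHTS format, inhibition is expressed relative to DMSO controls with enzyme (maximum) and without enzyme (minimum). The 60 min room-temperature reaction uses 0.1 mM ATP, with ADP detected by luminescence.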
# [3] = qHTS Assay for Identification of Small Molecule Antagonists for NFkB Signaling Pathway. (AID 624479; calls by dose curve;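 further: pathway stimulated with TNF alpha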; further: potency means the concentration at half of the fitted maximal effect)
# [4] = Cell Proliferation Assay against the TMD8 Cell Line (Caspase readout at 16 hrs) (AID 651712); further: potency means the concentration at half of the fitted maximal effect;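 on caspase activation: 0% = DMSO and 100% = 9.2 µM bortezomib caspase activation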
# In short: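 Caspase-Glo luminescence after 16 h compound exposure of TMD8 cells, 37 °C, 5% CO2. Medium: RPMI without phenol red, 5% FBS. Normalisation: DMSO = 0%, bortezomib 9.2 uM final = 100%.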
# [5] = Cytotoxicity counterscreen for NFkB agonists and antagonists (AID 624476);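 further: cells exposed to compound for 48 hours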; further: potency means the concentration at half of the fitted maximal effect
# [6] = qHTS assay for small molecule agonists of the antioxidant response element (ARE) signaling pathway (AID 651741; active means well fitted activation curve with a large enough effect in the signal ratio; inconclusive means small, poorly fitted or top-dose-only effect, or effect the other way, or a change in a side signal; the % refers to the signal ratio; further: potency means the concentration at half of the fitted maximal effect); details: HepG2 ARE-bla reporter, beta-lactamase FRET ratio, 16 h; activation: at 96 µM (top of the series)
# In short: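 HepG2 ARE-bla reporter cells, 2,000/well; 5 h settle at 37 C/5% CO2; compound pin transfer (23 nL, DMSO); 16 h at 37 C; LiveBLAzer B/G FRET substrate, 2 h RT; fluorescence intensity read.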
# [7] = qHTS assay for small molecule activators of the p53 signaling pathway (AID 651743; active means well fitted activation curve with a large enough effect in the signal ratio, not every such curve was filed as active; inconclusive means small, poorly fitted or top-dose-only effect, or a change in a side signal; the % refers to the signal ratio; further: potency means the concentration at half of the fitted maximal effect); details: HCT-116 p53RE-bla, beta-lactamase FRET ratio, 16 h; activation: hits give high values
# In short: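 Reporter: beta-lactamase driven by p53 response elements, stably integrated in HCT-116 cells. Cells seeded at 4,000/well, 5 h preincubation, compound (DMSO) 16 h at 37 C; B/G FRET substrate 2 h RT; fluorescence intensity read.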
# [8] = qHTS assay for small molecule activators of the nuclear factor-kappa B (NF-kB) signaling pathway (AID 651749; active means well fitted activation curve with a large enough effect in the signal ratio; inconclusive means small, poorly fitted or top-dose-only effect, or a change in a side signal; the % refers to the signal ratio; further: potency means the concentration at half of the fitted maximal effect); details: NF-kB-bla ME-180 cells, beta-lactamase FRET ratio, 16 h; activation: hits give high values
# In short: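 NF-kB-bla ME-180 cells, 2,000/well; 23 nL compound or DMSO pinned; 16 hr, 37C/5% CO2; beta-lactamase FRET read-out.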
# [9] = biological target: Peroxisome proliferator-activated receptor alpha (Homo sapiens) (UniProt Q07869); assay: qHTS assay for small molecule agonists of the peroxisome proliferator-activated receptor alpha (PPARalpha) signaling pathway (AID 651778); details: PathHunter PPARalpha complementation, chemiluminescence, 6 h; max response: hits give high values; further: potency means the concentration at half of the fitted maximal effect
# In short: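 Enzyme-fragment complementation assay in which ligand-bound PPARalpha translocates and forms an active enzyme that generates chemiluminescence. Cells were plated overnight, exposed to compound for 6 hr at 37 C, and then given detection reagent for 60 min at room temperature.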
# [10] = HTS Assay for Allosteric Antagonists of the Human D2 Dopamine Receptor: Hit Validation in HTRF (AID 624455); details: Cells stably expressing D1 dopamine receptor, inhibition mode; further: potency means the concentration at half of the fitted maximal effect
# In short: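 HTRF read-out; cells stably expressing D1 receptor; hits scored for inhibition of D1-mediated response. Primary screen: calcium flux, force-coupled inducible Hek293 Trex D2 line, antagonism vs EC80 dopamine.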
# [11] = qHTS assay to identify small molecules that stimulate interleukin-8 (IL-8) secretion (AID 651758; active means well fitted activation curve with a large enough effect in the signal ratio; inconclusive means small, poorly fitted or top-dose-only effect, or effect the other way, or a change in a side signal; the % refers to the signal ratio; further: 0% is about no effect); details: HTRF ratio (665/615); activation: at 92.2 µM (top of the series)
# In short: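 Compounds are added to THP-1 cells (2000 per well) and left 16 hrs at 37 C. A labeled anti-IL-8 antibody pair is then added, and IL-8 secretion is measured by time-resolved FRET after 1-3 hrs at room temperature.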
# [12] = biological target: Tumor susceptibility gene 101 protein (Homo sapiens) (UniProt Q99816); assay: qHTS Assay for Iinhibitors of HIV-1 Budding by Blocking the Interaction of PTAP/TSG101: Hit Validation (AID 651600); details: PTAP peptide/TSG101 UEV interaction, biochemical assay; further: potency means the concentration at half of the fitted maximal effect; nearly all actives have a fitted effect of over 70% in size
# In short: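 Measuring PTAP–Tsg101 interaction by FP: protein at 10 uM and fluorescent peptide at 50 nM (final), buffer 10 mM HEPES pH 7.5 with 0.15 M NaCl, 3 mM EDTA, 0.1 mM TCEP, 0.01% Tween 20; 20 min incubation, r.t.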
# Tags describe the fitted curve by direction and shape.
# Chain of UniProt P07947 (P07947 whole entry, looked up): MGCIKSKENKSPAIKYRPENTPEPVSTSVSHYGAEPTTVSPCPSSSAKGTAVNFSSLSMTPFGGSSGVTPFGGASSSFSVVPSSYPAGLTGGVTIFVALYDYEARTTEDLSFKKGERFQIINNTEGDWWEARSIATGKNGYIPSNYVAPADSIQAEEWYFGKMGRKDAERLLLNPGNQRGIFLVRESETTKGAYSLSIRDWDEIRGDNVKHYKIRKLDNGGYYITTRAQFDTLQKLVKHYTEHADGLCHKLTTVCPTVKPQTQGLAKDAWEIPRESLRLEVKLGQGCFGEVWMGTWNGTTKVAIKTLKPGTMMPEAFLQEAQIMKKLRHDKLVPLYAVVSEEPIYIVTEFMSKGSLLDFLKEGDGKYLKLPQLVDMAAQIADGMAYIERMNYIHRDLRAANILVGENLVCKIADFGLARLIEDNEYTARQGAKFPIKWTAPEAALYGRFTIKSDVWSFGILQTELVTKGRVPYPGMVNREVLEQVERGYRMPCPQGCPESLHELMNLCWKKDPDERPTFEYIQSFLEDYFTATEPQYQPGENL
# Chain of UniProt Q99816 (Q99816 whole entry, looked up): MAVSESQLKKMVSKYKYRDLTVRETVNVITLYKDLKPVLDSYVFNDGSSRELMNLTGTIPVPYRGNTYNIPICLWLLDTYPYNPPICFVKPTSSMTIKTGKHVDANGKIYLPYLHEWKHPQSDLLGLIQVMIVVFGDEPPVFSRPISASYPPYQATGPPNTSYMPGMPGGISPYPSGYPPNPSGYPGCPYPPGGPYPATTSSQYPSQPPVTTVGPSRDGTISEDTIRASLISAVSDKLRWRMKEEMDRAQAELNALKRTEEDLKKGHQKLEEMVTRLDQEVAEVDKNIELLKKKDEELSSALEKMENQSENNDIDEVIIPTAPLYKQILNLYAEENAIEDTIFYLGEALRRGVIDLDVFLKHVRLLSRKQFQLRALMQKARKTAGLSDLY
# Chain of UniProt Q07869 (Q07869 whole entry, looked up, the tested form may be a part): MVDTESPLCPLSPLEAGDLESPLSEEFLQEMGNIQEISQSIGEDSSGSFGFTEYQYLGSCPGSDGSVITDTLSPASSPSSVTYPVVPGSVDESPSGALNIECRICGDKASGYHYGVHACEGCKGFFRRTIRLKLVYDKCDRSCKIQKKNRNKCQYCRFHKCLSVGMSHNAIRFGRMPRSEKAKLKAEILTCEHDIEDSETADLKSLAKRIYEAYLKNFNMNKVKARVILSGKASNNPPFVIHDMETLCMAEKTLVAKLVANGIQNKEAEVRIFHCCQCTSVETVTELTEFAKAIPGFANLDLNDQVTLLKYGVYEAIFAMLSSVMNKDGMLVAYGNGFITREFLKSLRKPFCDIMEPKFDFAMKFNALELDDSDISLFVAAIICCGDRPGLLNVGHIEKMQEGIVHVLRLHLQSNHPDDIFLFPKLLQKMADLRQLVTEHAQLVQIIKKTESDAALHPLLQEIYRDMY
structure (smiles),measurement,setting,value
COc1ccc(C(=O)c2c(C)n(CCN3CCOCC3)c3ccccc23)cc1,Potency,[1],active: 26.4 µM
same,Potency,[2],"inconclusive [inhibitor, partial curve]"
Cc1c(C(=O)Nc2cccc(C(F)(F)F)c2)cc(-c2ccccc2)n1CCCN1CCOCC1,Potency,[3],"inconclusive [inhibitor, single point]"
same,Potency,[4],"inconclusive [activator, single point]"
same,caspase activation,[1],inconclusive: 30.5% [activator]
Cc1cnc(Nc2ccc(F)cc2Cl)nc1-c1c[nH]c(C(=O)N[C@H](CO)c2cccc(Cl)c2)c1,Potency,[5],active: 26.4 µM
same,Potency,[4],"inconclusive [activator, single point]"
same,Potency,[1],"inconclusive [activator, single point]"
Cc1cc2c(C(C)C)c(O)c(O)c(C=O)c2c(O)c1-c1c(C)cc2c(C(C)C)c(O)c(O)c(C=O)c2c1O,Potency,[3],active: 5.95 µM
same,Potency,[1],"inconclusive [activator, single point]"
same,Potency,[6],"inconclusive [cytotoxic, side channel, partial curve]"
same,Potency,[7],"inconclusive [side channel, falling, full curve]"
same,Potency,[8],"inconclusive [cytotoxic, side channel, single point]"
same,Potency,[9],"inconclusive [activator, partial curve, poor fit]"
C=CCON=C(C[C@H]1O[C@@H]2O[C@]3(C)CC[C@@H]4[C@H](C)CC[C@@H]([C@H]1C)[C@@]24OO3)[C@H]1O[C@@H]2O[C@]3(C)CC[C@H]4[C@H](C)CC[C@@H]([C@@H]1C)[C@@]24OO3,Potency,[5],"inconclusive [inhibitor, partial curve]"
same,Potency,[4],active: 0.0833 µM
O=C(O)c1nn(Cc2ccc(Cl)cc2Cl)c2ccccc12,Potency,[3],inactive
same,Potency,[1],inactive
same,Potency,[2],inactive
NCC(O)c1ccc(O)cc1 (stereo not given),Potency,[10],"inconclusive [inhibitor, partial curve, poor fit]"
same,Potency,[11],inactive
CNC(=O)c1ccc(N2C(=S)N(c3ccc(C#N)c(C(F)(F)F)c3)C(=O)C23CCC3)cc1F,Potency,[4],"inconclusive [activator, single point]"
same,Potency,[2],"inconclusive [inhibitor, full curve]"
CCCCC/C=C\C/C=C\C/C=C\C/C=C\CCCC(=O)NC1CC1,Potency,[5],inactive
same,Potency,[3],"inconclusive [inhibitor, partial curve]"
same,Potency,[2],inactive
O=C(Oc1ccc([N+](=O)[O-])cc1)N1CCC(C(O)(c2ccc3c(c2)OCO3)c2ccc3c(c2)OCO3)CC1,Potency,[5],inactive
same,Potency,[4],"inconclusive [activator, single point]"
C[C@]12CCC(=O)C(O)=C1CC[C@@H]1[C@@H]2CC[C@]2(C)C(=O)CC[C@@H]12,Potency,[4],inactive
Cc1cc(SCc2sc(-c3ccc(C(F)(F)F)c(F)c3)nc2C)ccc1OCC(=O)O,Potency,[5],"inconclusive [inhibitor, single point]"
same,Potency,[3],"inconclusive [inhibitor, single point]"
same,Potency,[1],inactive
same,Potency,[6],active: 68.6 µM
same,Potency,[7],"inconclusive [activator, single point]"
CC1CC(C)C(=O)C(C(O)CC2CC(=O)NC(=O)C2)C1 (stereo not given),Potency,[1],active: 17.1 µM
same,Potency,[2],inactive
CC1=C2C[C@@H]3[C@@H](CC=C4C[C@@H](O)CC[C@@]43C)[C@@H]2CC[C@]12O[C@H]1C[C@H](C)CN[C@H]1[C@H]2C,Potency,[5],inactive
same,Potency,[3],"inconclusive [inhibitor, partial curve]"
same,Potency,[4],"inconclusive [activator, single point]"
same,Potency,[1],"inconclusive [activator, single point]"
COC1(CS(=O)c2ccccc2)CCN(CCc2c[nH]c3ccc(F)cc23)CC1 (stereo not given),Potency,[4],inactive
CN1CCN(c2ccc([N+](=O)[O-])c3no[n+]([O-])c23)CC1,Potency,[12],"inconclusive [inhibitor, single point]"
CN(N=O)c1ccc(O)c(O)c1,Potency,[10],"inconclusive [inhibitor, partial curve, poor fit]"
CC(C)C[C@H](NC(=O)c1cc2ccccc2s1)C(=O)N1CCN(C(=O)[C@H](CO)NS(=O)(=O)c2ccc(Cl)cc2Cl)CC1,Potency,[4],"inconclusive [activator, single point]"
same,Potency,[1],"inconclusive [activator, single point]"
